# Some of the results follow.
# B1: Als3-2 (Candida albicans) (protein)
# chain: KTITGVFNSFNSLTWSNAATYNYKGPGTPTWNAVLGWSLDGTSASPGDTFTLNMPCVFKFTTSQTSVDLTAHGVKYATCQFQAGEEFMTFSTLTCTVSNTLTPSIKALGTVTLPLAFNVGGTGSSVDLEDSKCFTAGTNTVTFNDGGKKISINVDFERSNVDPKGYLTD
# Tests used:
# Test in all cases: glycan array binding signal (z-score within array); higher = stronger binding
# Details in all cases: glycan notation: IUPAC condensed, linker removed
# [1] = molecular target: Man(a1-2)Man(a1-3)[Man(a1-2)Man(a1-6)]Man(a1-6)[Man(a1-2)Man(a1-2)Man(a1-3)]Man
# Method in brief: (§1)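 Columns mapping to the same glycan were averaged after glycan names were converted to IUPAC-condensed notation. The data come from 3228 arrays in the Consortium for Functional Glycomics database, limited to those with an available protein sequence. Binding is reported as a within-array Z-score averaged across arrays of one protein sequence and across linkers.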
# [2] = molecular target: Man(a1-2)Man(a1-3)[Man(a1-2)Man(a1-6)]Man(a1-6)[Man(a1-2)Man(a1-2)Man(a1-3)]Man(b1-4)GlcNAc(b1-4)GlcNAc
# Method in brief: as §1
# [3] = molecular target: Man(a1-2)Man(a1-3)[Man(a1-6)]Man(a1-6)[Man(a1-2)Man(a1-3)]Man(b1-4)GlcNAc(b1-4)GlcNAc
# Method in brief: as §1
# [4] = molecular target: Man(a1-2)Man(a1-6)[Man(a1-3)]Man(a1-6)[Man(a1-2)Man(a1-2)Man(a1-3)]Man
# Method in brief: as §1
# [5] = molecular target: Man(a1-2)Man(a1-6)[Man(a1-3)]Man(a1-6)[Man(a1-2)Man(a1-2)Man(a1-3)]Man(b1-4)GlcNAc(b1-4)GlcNAc
# Method in brief: as §1
# Man(a1-3)[Man(a1-6)]Man = molecular target: Man(a1-3)[Man(a1-6)]Man
# Method in brief: as §1
# [6] = molecular target: Man(a1-3)[Man(a1-6)]Man(a1-6)[Man(a1-2)Man(a1-3)]Man(b1-4)GlcNAc(b1-4)GlcNAc
# Method in brief: as §1
# [7] = molecular target: Man(a1-3)[Man(a1-6)]Man(a1-6)[Man(a1-3)]Man
# Method in brief: as §1
# [8] = molecular target: Man(a1-3)[Man(a1-6)]Man(a1-6)[Man(a1-3)]Man(b1-4)GlcNAc(b1-4)GlcNAc
# Method in brief: as §1
# [9] = molecular target: Man(a1-3)[Man(a1-6)]Man(b1-4)GlcNAc(b1-4)GlcNAc
# Method in brief: as §1
# [10] = molecular target: Man(a1-3)[Man(a1-6)]Man(b1-4)GlcNAc(b1-4)[Fuc(a1-6)]GlcNAc
# Method in brief: as §1
# Man(a1-6)Man = molecular target: Man(a1-6)Man
# Method in brief: as §1
# Man(b1-4)GlcNAc = molecular target: Man(b1-4)GlcNAc
# Method in brief: as §1
# MurNAc(b1-4)GlcNAc = molecular target: MurNAc(b1-4)GlcNAc
# Method in brief: as §1
# Neu5Ac(a2-3)Gal = molecular target: Neu5Ac(a2-3)Gal
# Method in brief: as §1
# [11] = molecular target: Neu5Ac(a2-3)Gal(b1-3)GalNAc
# Method in brief: as §1
# [12] = molecular target: Neu5Ac(a2-3)Gal(b1-3)GalNAc(b1-3)Gal(a1-4)Gal(b1-4)Glc
# Method in brief: as §1
# [13] = molecular target: Neu5Ac(a2-3)Gal(b1-3)GalNAc(b1-4)[Neu5Ac(a2-3)]Gal(b1-4)Glc
# Method in brief: as §1
# [14] = molecular target: Neu5Ac(a2-3)Gal(b1-3)GalNAc(b1-4)[Neu5Ac(a2-8)Neu5Ac(a2-3)]Gal(b1-4)Glc
# Method in brief: as §1
# [15] = molecular target: Neu5Ac(a2-3)Gal(b1-3)GalNAc6S
# Method in brief: as §1
# [16] = molecular target: Neu5Ac(a2-3)Gal(b1-3)GlcNAc
# Method in brief: as §1
# [17] = molecular target: Neu5Ac(a2-3)Gal(b1-3)GlcNAc(b1-2)Man
# Method in brief: as §1
# [18] = molecular target: Neu5Ac(a2-3)Gal(b1-3)GlcNAc(b1-2)Man(a1-3)[GlcNAc(b1-4)][Neu5Ac(a2-3)Gal(b1-3)GlcNAc(b1-2)Man(a1-6)]Man(b1-4)GlcNAc(b1-4)GlcNAc
# Method in brief: as §1
# [19] = molecular target: Neu5Ac(a2-3)Gal(b1-3)GlcNAc(b1-2)Man(a1-3)[Neu5Ac(a2-3)Gal(b1-3)GlcNAc(b1-2)Man(a1-6)]Man(b1-4)GlcNAc(b1-4)GlcNAc
# Method in brief: as §1
# [20] = molecular target: Neu5Ac(a2-3)Gal(b1-3)GlcNAc(b1-3)Gal(b1-3)GlcNAc
# Method in brief: as §1
# [21] = molecular target: Neu5Ac(a2-3)Gal(b1-3)GlcNAc(b1-3)Gal(b1-4)GlcNAc
# Method in brief: as §1
# [22] = molecular target: Neu5Ac(a2-3)Gal(b1-3)GlcNAc(b1-3)GalNAc
# Method in brief: as §1
# [23] = molecular target: Neu5Ac(a2-3)Gal(b1-3)GlcNAc(b1-4)Gal(b1-4)Glc
# Method in brief: as §1
# [24] = molecular target: Neu5Ac(a2-3)Gal(b1-3)GlcNAc(b1-6)GalNAc
# Method in brief: as §1
# [25] = molecular target: Neu5Ac(a2-3)Gal(b1-3)GlcNAc6S
# Method in brief: as §1
# [26] = molecular target: Neu5Ac(a2-3)Gal(b1-3)[Fuc(a1-4)]GlcNAc
# Method in brief: as §1
# [27] = molecular target: Neu5Ac(a2-3)Gal(b1-3)[Fuc(a1-4)]GlcNAc(b1-3)Gal(b1-3)[Fuc(a1-4)]GlcNAc
# Method in brief: as §1
# [28] = molecular target: Neu5Ac(a2-3)Gal(b1-3)[Fuc(a1-4)]GlcNAc(b1-3)Gal(b1-4)[Fuc(a1-3)]GlcNAc
# Method in brief: as §1
# [29] = molecular target: Neu5Ac(a2-3)Gal(b1-3)[GlcNAc(b1-6)]GalNAc
# Method in brief: as §1
# [30] = molecular target: Neu5Ac(a2-3)Gal(b1-3)[Neu5Ac(a2-6)]GalNAc
# Method in brief: as §1
# [31] = molecular target: Neu5Ac(a2-3)Gal(b1-3)[Neu5Ac(a2-6)]GlcNAc(b1-3)[Fuc(a1-3)[Gal(b1-4)]GlcNAc(b1-6)]Gal(b1-4)Glc
# Method in brief: as §1
# [32] = molecular target: Neu5Ac(a2-3)Gal(b1-3)]Neu5Ac(a2-3)Gal(b1-4)]GlcNAc
# Method in brief: as §1
# Neu5Ac(a2-3)Gal(b1-4)Glc = molecular target: Neu5Ac(a2-3)Gal(b1-4)Glc
# Method in brief: as §1
binder,measurement,setting,value
B1,glycan array binding signal (z-score),[1],-0.73
same,glycan array binding signal (z-score),[2],-0.659
same,glycan array binding signal (z-score),[3],-0.533
same,glycan array binding signal (z-score),[4],-0.575
same,glycan array binding signal (z-score),[5],-0.686
same,glycan array binding signal (z-score),Man(a1-3)[Man(a1-6)]Man,-0.509
same,glycan array binding signal (z-score),[6],0.214
same,glycan array binding signal (z-score),[7],0.168
same,glycan array binding signal (z-score),[8],0.023
same,glycan array binding signal (z-score),[9],-0.359
same,glycan array binding signal (z-score),[10],-0.591
same,glycan array binding signal (z-score),Man(a1-6)Man,-0.209
same,glycan array binding signal (z-score),Man(b1-4)GlcNAc,0.402
same,glycan array binding signal (z-score),MurNAc(b1-4)GlcNAc,-0.296
same,glycan array binding signal (z-score),Neu5Ac(a2-3)Gal,0.304
same,glycan array binding signal (z-score),[11],-0.648
same,glycan array binding signal (z-score),[12],-0.583
same,glycan array binding signal (z-score),[13],-0.612
same,glycan array binding signal (z-score),[14],-0.039
same,glycan array binding signal (z-score),[15],-0.657
same,glycan array binding signal (z-score),[16],-0.337
same,glycan array binding signal (z-score),[17],-0.126
same,glycan array binding signal (z-score),[18],-0.325
same,glycan array binding signal (z-score),[19],-0.393
same,glycan array binding signal (z-score),[20],-0.517
same,glycan array binding signal (z-score),[21],-0.648
same,glycan array binding signal (z-score),[22],-0.729
same,glycan array binding signal (z-score),[23],-0.296
same,glycan array binding signal (z-score),[24],1.45
same,glycan array binding signal (z-score),[25],-0.302
same,glycan array binding signal (z-score),[26],-0.237
same,glycan array binding signal (z-score),[27],-0.524
same,glycan array binding signal (z-score),[28],-0.614
same,glycan array binding signal (z-score),[29],1.2
same,glycan array binding signal (z-score),[30],-0.234
same,glycan array binding signal (z-score),[31],-0.634
same,glycan array binding signal (z-score),[32],2.16
same,glycan array binding signal (z-score),Neu5Ac(a2-3)Gal(b1-4)Glc,-0.386
